# Some of the results follow. The main result of the screen is listed elsewhere. These columns were measured beside it and carry no call. Most of these compounds were active or inconclusive in the main read-out, so they are no random draw.
# Assay: growth inhibition of WT strain, primary screen, mitochondrial fusion inhibitor project, WT and mutant strains, chemical genetic (AID 1362); also: tested in S. cerevisiae
# Settings: mitochondrial fusion phenotypic screen, at 10 µM
row,Compound,inhibition
1,Cc1ccc(C(C)C)c(Oc2nnnn2-c2ccccc2)c1,34.5%
2,CCOC(=O)C1CCC(CN(Cc2ccccc2)S(=O)(=O)c2ccc([N+](=O)[O-])cc2)CC1 (centres undefined),63.4%
3,CC1CCCC(NC(=S)NC(=O)c2cncc(Br)c2)C1C (centres undefined),54.6%
4,O=C(Nc1nc(-c2cccs2)c(-c2cccs2)s1)C1CCCC1,28.2%
5,CC(=O)Cc1nsc(NC(=O)c2ccc(-c3cc(Cl)ccc3Cl)o2)n1,-2.35%
6,COc1cccc(Nc2nc(-c3sc(NC(=O)c4ccccc4)nc3C)cs2)c1,24.2%
7,O=c1oc2cc(Oc3c([N+](=O)[O-])cc(C(F)(F)F)cc3[N+](=O)[O-])ccc2c2c1CCCC2,54%
8,C=CCn1c(SCC(=O)Nc2cccc(C(=O)OC)c2)nnc1C(C)NC(=O)c1cccs1 (centres undefined),1.01%
9,Cc1nn2c(N3CCN(c4ccccn4)CC3)cc(C(C)C)nc2c1-c1ccccc1,95%
10,CCCCCN1C=CC(=C2C(=O)c3ccccc3C2=O)C=C1,54.7%
11,N#CC(c1ccccc1)c1ccc2c(C(F)(F)F)cc(C(F)(F)F)nc2n1 (centres undefined),68.8%
12,O=C(NCc1ccccn1)C(=O)Nc1nc(C23CC4CC(CC(C4)C2)C3)cs1,-13.2%
13,Cc1ccc(Nc2ccc(C(=O)O)cc2N)cc1,18.1%
14,CC(=O)Oc1c(C)cc(Cl)cc1C(=O)Nc1ccc([N+](=O)[O-])cc1Cl,84.8%
15,Cc1ccc2cc(CN(C(=O)c3ccco3)c3ccccc3C)c(=O)[nH]c2c1,10.6%
16,On1onc2c3cc(-c4ccccc4)nc3ccc21,72.8%
17,Cc1ccc(Cn2ccc(=O)c(OCc3c(Cl)cccc3Cl)c2C)cc1,74%
18,Fc1ccc(C(CCCn2nnc(-c3cccnc3)n2)c2ccc(F)cc2)cc1,2.32%
19,Cc1ccc(-c2csc3ncnc(Nc4ccc(N5CCOCC5)cc4)c23)cc1,11.6%
20,Cc1cc2ncn(/N=C/c3cccnc3)c2cc1C,4.14%
21,CCc1ccc(NS(=O)(=O)c2ccc(OC)c(C)c2)cc1,58.3%
22,COc1ccc(Br)cc1/C=C/C(=O)c1ccc(NC(C)=O)cc1,72.8%
23,c1ccc2c(c1)oc1c(N3CCN(Cc4ccc5c(c4)OCO5)CC3)ncnc12,47.2%
24,Cc1ccc(S(=O)(=O)n2c3ccc(Cl)cc3c3nc(C)sc32)cc1,-0.23%
25,Cc1cccc(C2c3[nH]c4ccccc4c3CCN2C(=O)c2noc3c2CCCC3)n1 (centres undefined),41.8%
26,CCCS(=O)(=O)c1nnnn1-c1cccc(OC)c1,72.2%
27,COc1ccc(S(=O)(=O)N2CCCCCC2)cc1C(=O)OCc1c(C)noc1C,22.3%
28,CCOc1ccccc1N1CCN(C(=S)NCc2ccc(Cl)cc2)CC1,51.3%
29,COc1ccc(CN(C)C(c2ccccc2)c2nnnn2-c2ccccc2C)c(OC)c1C (centres undefined),44.6%

# Source: PubChem BioAssay AID1362 (SRMLSC, 2008)
